Source: the supplement of paper PMC4206461
The other results are listed elsewhere or left out.

Test system: Pseudomonas aeruginosa PA14 dppA1-A5 penta deletion mutant
Experiment: respiration area under curve with compound as sole nitrogen source, 24 h (OmniLog AUC (arbitrary units)); higher = more respiration / better utilisation as nitrogen source; extreme values may be limits of the assay
Conditions: plate: PM8
Experimental: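 Biolog Phenotype MicroArray plates PM6-PM8: each di/tripeptide is the sole nitrogen source. Tetrazolium reduction was read in the OmniLog for 24 h at 37°C and summarised as area under the respiration curve (arbitrary units). Values below 2000 count as no respiration.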

| SMILES | respiration area under curve |
| --- | --- |
| CC(C)C[C@@H](NC(=O)CNC(=O)CN)C(=O)O | inactive: 19.7 |
| CC(C)C[C@H](NC(=O)CNC(=O)CN)C(=O)O | inactive: 397 |
